Data from PubChem BioAssay (Tox21).
The inconclusive results got no clear call from the source; some entries with a clear call stand among them for comparison. For some of these results: A potency beside an inconclusive call is a rough fit, not a confirmed value. The source made the active and inactive calls. Unless noted, calls follow the shape of the full dose curve.

Columns and labels:
[1] = molecular target: Peroxisome proliferator-activated receptor gamma (Homo sapiens) (UniProt P37231); experiment: qHTS assay to identify small molecule antagonists of the peroxisome proliferator-activated receptor gamma (PPARg) signaling pathway (AID 743191); conditions: HEK293H PPARg-UAS-bla, beta-lactamase ratio, antagonist, 17 h; ratio activity, negative = inhibition: at 62.6 µM (top of the series) unless noted; also: nearly all actives have a fitted effect of over 30% in size; also: potency is read from the fitted curve at half-maximal effect
Outline: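 GeneBLAzer PPARg UAS-bla HEK293H cells, 5 h post-plating, exposed to compounds 17 h at 37C. LiveBLAzer B/G FRET substrate added for 1 h at room temperature; beta-lactamase reporter read by fluorescence intensity.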

[2] = qHTS assay for small molecule agonists of the antioxidant response element (ARE) signaling pathway (AID 743202; active = well fitted activation curve with a large enough effect in the signal ratio in the repeat runs, not every such curve was filed as active; inconclusive = weak or mixed curves, or effect the other way; inactive = no such curve, though single readings can be large or run the other way; the % refers to the signal ratio; also: potency is read from the fitted curve at half-maximal effect); conditions: HepG2 ARE-bla reporter, beta-lactamase FRET, 16 h; activation: at 73.3 µM (top of the series) unless noted
Outline: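 HepG2 ARE-bla cells; 16 h treatment at 37 C; FRET-based beta-lactamase fluorescence read after 2 h substrate incubation at room temperature.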

[3] = molecular target: Vitamin D3 receptor (Homo sapiens) (UniProt P11473); experiment: qHTS assay to identify small molecule antagonists of the vitamin D receptor (VDR) signaling pathway (AID 743223; active = well fitted inhibition curve with a large enough effect in the signal ratio in the repeat runs, not every such curve was filed as active; inconclusive = weak or mixed curves, or effect the other way; inactive = no such curve, though single readings can be large or run the other way; the % refers to the signal ratio; also: potency is read from the fitted curve at half-maximal effect); conditions: VDR-UAS-bla HEK293T, beta-lactamase FRET ratio, 16 h; activity change, negative = inhibition: at 61 µM (top of the series) unless noted
Outline: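 VDR-bla cells were plated, incubated 4 h at 37C, then given compound and 1alpha,25-dihydroxyvitamin D3 (3 nM final). After 16 h at 37C, LiveBLAzer B/G FRET substrate was added for 2 h at room temperature and fluorescence read.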

[4] = molecular target: Peroxisome proliferator-activated receptor delta (Homo sapiens) (UniProt Q03181); experiment: qHTS assay to identify small molecule agonists of the peroxisome proliferator-activated receptor delta (PPARd) signaling pathway (AID 743212); conditions: HEK293H PPARd-UAS-bla, beta-lactamase FRET ratio, 17 h; activation: at 62.6 µM (top of the series) unless noted
Outline: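 Tox21 library screened in GeneBLAzer PPARd UAS-bla HEK293H cells. After compound treatment at 37 C, a FRET-based beta-lactamase substrate was applied for 2 h and fluorescence recorded.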

[5] = molecular target: Peroxisome proliferator-activated receptor delta (Homo sapiens) (UniProt Q03181); experiment: qHTS assay to identify small molecule antagonists of the peroxisome proliferator-activated receptor delta (PPARd) signaling pathway (AID 743215; active = well fitted inhibition curve with a large enough effect in the signal ratio in the repeat runs, not every such curve was filed as active; inconclusive = weak or mixed curves, or effect the other way; inactive = no such curve, though single readings can be large or run the other way; the % refers to the signal ratio;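 also: cells stimulated with agonist L165041 at 300 nM final during compound exposure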; also: potency is read from the fitted curve at half-maximal effect); conditions: HEK293H PPARd-UAS-bla, beta-lactamase FRET ratio, antagonist, 17 h; ratio activity, negative = inhibition: at 62 µM (top of the series) unless noted
Outline: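 Here, a reporter line (HEK293H, beta-lactamase under a UAS) measures PPARd signaling. Compounds are tested against agonist L165041 at 300 nM final concentration over 17 h at 37 C, with fluorescence read after substrate.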

[6] = qHTS assay to identify small molecule antagonists of the peroxisome proliferator-activated receptor delta (PPARd) signaling pathway - cell viability counter screen (AID 743213; active = well fitted curve in the direction sought with a large enough effect in the repeat runs; inconclusive = weak or mixed curves; inactive = no such curve, though single readings can be large; an effect the other way counts as inactive or inconclusive; also: nearly all actives have a fitted effect of over 50% in size; also: potency is read from the fitted curve at half-maximal effect); conditions: PPARd-bla HEK293H viability, CellTiter-Glo luminescence, 17 h; viability change, negative = cytotoxic: at 62 µM (top of the series) unless noted
Outline: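 Viability counter-screen, qHTS format: PPARd-bla HEK293H, L165041 300 nM final, 17 h compound exposure at 37 C, CellTiter-Glo luminescence after 30 min RT.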

[7] = qHTS assay to identify small molecule agonists of the farnesoid-X-receptor (FXR) signaling pathway - cell viability counter screen (AID 743218; active = well fitted curve in the direction sought with a large enough effect in the repeat runs; inconclusive = weak or mixed curves; inactive = no such curve, though single readings can be large; an effect the other way counts as inactive or inconclusive; also: nearly all actives have a fitted effect of over 45% in size; also: potency is read from the fitted curve at half-maximal effect); conditions: FXR-bla HEK293T viability, CellTiter-Glo luminescence, 16 h; viability change, negative = cytotoxic: at 62.6 µM (top of the series) unless noted
Outline: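 Quantitative HTS counter screen measuring ATP-based viability via CellTiter-Glo luminescence in HEK 293T cells carrying a UAS-driven beta-lactamase reporter, after 16 h compound exposure at 37 C.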

[8] = molecular target: Vitamin D3 receptor (Homo sapiens) (UniProt P11473); experiment: qHTS assay to identify small molecule agonists of the vitamin D receptor (VDR) signaling pathway (AID 743222); conditions: HEK293T VDR-UAS-bla, beta-lactamase FRET ratio, 16 h; activation: at 63.5 µM (top of the series) unless noted; also: potency is read from the fitted curve at half-maximal effect
Outline: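 Tox21 cell reporter format: VDR-bla line, 16 h compound exposure in 5% CO2 at 37C, then fluorescence intensity after 2 h with LiveBLAzer B/G FRET substrate.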

[9] = qHTS assay to identify small molecule agonists of the peroxisome proliferator-activated receptor delta (PPARd) signaling pathway - cell viability counter screen (AID 743211; active = well fitted curve in the direction sought with a large enough effect in the repeat runs; inconclusive = weak or mixed curves; inactive = no such curve, though single readings can be large; an effect the other way counts as inactive or inconclusive; also: nearly all actives have a fitted effect of over 55% in size; also: potency is read from the fitted curve at half-maximal effect); conditions: PPARd-bla HEK293H viability, CellTiter-Glo luminescence, 17 h; activity change, negative = cytotoxicity: at 62.6 µM (top of the series)
Outline: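 PPARd-bla HEK293H cells (UAS-beta-lactamase reporter) were treated with compounds for 17 h at 37 C. Viability was then read in the same wells by CellTiter-Glo luminescence after 30 min at room temperature.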

[10] = molecular target: Bile acid receptor (Homo sapiens) (UniProt Q96RI1); experiment: qHTS assay to identify small molecule antagonists of the farnesoid-X-receptor (FXR) signaling pathway (AID 743217; active = well fitted inhibition curve with a large enough effect in the signal ratio in the repeat runs, not every such curve was filed as active; inconclusive = weak or mixed curves, or effect the other way; inactive = no such curve, though single readings can be large or run the other way; the % refers to the signal ratio; also: potency is read from the fitted curve at half-maximal effect); conditions: HEK293T FXR-UAS-bla, beta-lactamase ratio, CDCA-stimulated, 16 h; activity change, negative = inhibition: at 62.6 µM (top of the series) unless noted
Outline: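 Test compounds are pin-transferred onto FXR-bla HEK 293T cells, then chenodeoxycholic acid is added at 50 uM final. After 16 h at 37 °C, LiveBLAzer B/G substrate is applied for 2 h at room temperature and fluorescence read.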

[11] = qHTS assay for small molecule agonists of the antioxidant response element (ARE) signaling pathway - cell viability counter screen (AID 743203); conditions: ARE-bla HepG2 viability, CellTiter-Glo luminescence, 16 h; viability change, negative = cytotoxic: at 73.3 µM (top of the series); also: nearly all actives have a fitted effect of over 55% in size; also: potency is read from the fitted curve at half-maximal effect
Outline: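 ATP content via CellTiter-Glo luminescence served as the viability measure. Cells: ARE-bla HepG2, 2,000 per well. Exposure: 16 hrs, 37C/5% CO2.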

[12] = qHTS assay for small molecule activators of the heat shock response signaling pathway - cell viability counter screen (AID 743209; active = well fitted curve in the direction sought with a large enough effect in the repeat runs; inconclusive = weak or mixed curves; inactive = no such curve, though single readings can be large; an effect the other way counts as inactive or inconclusive; also: nearly all actives have a fitted effect of over 50% in size); conditions: HSE-bla HeLa viability, CellTiter-Glo luminescence, 5 h; activity change, negative = cytotoxicity: at 62.6 µM (top of the series)
Outline: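 Compounds dissolved in DMSO were added to overnight-plated HSE-bla HeLa cells and left 5 h at 37 C. Cell viability was quantified by luminescence using CellTiter-Glo.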

[13] = qHTS assay to identify small molecule antagonists of the farnesoid-X-receptor (FXR) signaling pathway - cell viability counter screen (AID 743221; active = well fitted cell-killing curve with a large enough effect in the repeat runs, not every such curve was filed as active; inconclusive = weak or mixed curves, or effect the other way; inactive = no such curve, though single readings can be large or run the other way; also: nearly all actives have a fitted effect of over 50% in size; also: potency is read from the fitted curve at half-maximal effect); conditions: FXR-bla HEK293T viability, CellTiter-Glo luminescence, 16 h; activity change, negative = cytotoxicity: at 62.6 µM (top of the series)
Outline: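 FXR-UAS-bla HEK 293T cells were treated with test compounds plus chenodeoxycholic acid (50 uM final) for 16 h at 37 C. Cell viability in the same wells was then read as CellTiter-Glo luminescence after 30 min at room temperature.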

[14] = molecular target: Bile acid receptor (Homo sapiens) (UniProt Q96RI1); experiment: qHTS assay to identify small molecule agonists of the farnesoid-X-receptor (FXR) signaling pathway (AID 743220; active = well fitted activation curve with a large enough effect in the signal ratio in the repeat runs, not every such curve was filed as active; inconclusive = weak or mixed curves, or effect the other way; the % refers to the signal ratio); conditions: HEK293T FXR-UAS-bla, beta-lactamase FRET ratio, 16 h; activation: at 62.6 µM (top of the series) unless noted
Outline: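 FXR-UAS-bla HEK 293T cells carrying a UAS-driven beta-lactamase reporter were plated for 5 h at 37C/5% CO2, then exposed to DMSO-dissolved Tox21 10K compounds for 16 h at 37C. A LiveBLAzer B/G FRET substrate was loaded for 2 h at room temperature before fluorescence reading.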
% is scaled to controls: 0 for no effect and ±100 for the full control effect; tags tell the direction and shape of the fitted curve or compound fluorescence and quenching.

UniProt P11473, sequence (P11473 whole entry, looked up): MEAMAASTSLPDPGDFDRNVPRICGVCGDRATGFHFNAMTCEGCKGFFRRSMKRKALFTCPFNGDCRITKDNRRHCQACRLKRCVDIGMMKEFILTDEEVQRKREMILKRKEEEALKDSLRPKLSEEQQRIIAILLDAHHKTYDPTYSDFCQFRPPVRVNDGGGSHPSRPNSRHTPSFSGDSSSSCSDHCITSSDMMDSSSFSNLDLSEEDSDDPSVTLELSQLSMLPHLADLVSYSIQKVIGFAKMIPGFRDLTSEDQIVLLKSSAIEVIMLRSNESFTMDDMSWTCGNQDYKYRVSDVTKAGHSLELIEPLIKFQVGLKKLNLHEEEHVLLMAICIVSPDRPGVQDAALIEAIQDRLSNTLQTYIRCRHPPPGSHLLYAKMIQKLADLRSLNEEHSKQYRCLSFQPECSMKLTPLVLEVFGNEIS
UniProt Q03181, sequence (Q03181 whole entry, looked up): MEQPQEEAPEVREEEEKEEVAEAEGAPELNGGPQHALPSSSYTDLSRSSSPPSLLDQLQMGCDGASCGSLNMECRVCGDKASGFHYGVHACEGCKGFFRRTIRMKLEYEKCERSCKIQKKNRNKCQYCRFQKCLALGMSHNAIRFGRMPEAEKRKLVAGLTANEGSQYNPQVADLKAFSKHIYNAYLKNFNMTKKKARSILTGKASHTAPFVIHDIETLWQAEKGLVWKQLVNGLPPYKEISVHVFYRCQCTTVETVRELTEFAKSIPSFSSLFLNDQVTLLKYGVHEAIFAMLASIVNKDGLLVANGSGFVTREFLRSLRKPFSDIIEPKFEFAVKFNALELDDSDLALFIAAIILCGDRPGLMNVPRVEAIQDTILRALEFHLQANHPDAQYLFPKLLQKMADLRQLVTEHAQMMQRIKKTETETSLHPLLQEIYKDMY
UniProt P37231, sequence (P37231 whole entry, looked up): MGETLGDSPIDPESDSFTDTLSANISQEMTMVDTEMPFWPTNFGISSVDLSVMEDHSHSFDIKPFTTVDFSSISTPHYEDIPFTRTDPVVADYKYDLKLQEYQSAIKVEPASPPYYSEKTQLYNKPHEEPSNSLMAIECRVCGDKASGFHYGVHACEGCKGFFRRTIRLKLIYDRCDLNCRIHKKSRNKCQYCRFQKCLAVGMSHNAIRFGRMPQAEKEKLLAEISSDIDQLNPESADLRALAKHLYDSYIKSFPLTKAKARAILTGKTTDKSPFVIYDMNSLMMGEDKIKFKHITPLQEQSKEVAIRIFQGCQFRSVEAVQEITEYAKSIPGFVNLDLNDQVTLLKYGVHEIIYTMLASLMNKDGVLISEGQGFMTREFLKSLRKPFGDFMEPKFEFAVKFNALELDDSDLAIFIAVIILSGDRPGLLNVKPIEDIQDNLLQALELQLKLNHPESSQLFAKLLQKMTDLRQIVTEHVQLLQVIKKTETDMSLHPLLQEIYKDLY
UniProt Q96RI1, sequence (Q96RI1 whole entry, looked up): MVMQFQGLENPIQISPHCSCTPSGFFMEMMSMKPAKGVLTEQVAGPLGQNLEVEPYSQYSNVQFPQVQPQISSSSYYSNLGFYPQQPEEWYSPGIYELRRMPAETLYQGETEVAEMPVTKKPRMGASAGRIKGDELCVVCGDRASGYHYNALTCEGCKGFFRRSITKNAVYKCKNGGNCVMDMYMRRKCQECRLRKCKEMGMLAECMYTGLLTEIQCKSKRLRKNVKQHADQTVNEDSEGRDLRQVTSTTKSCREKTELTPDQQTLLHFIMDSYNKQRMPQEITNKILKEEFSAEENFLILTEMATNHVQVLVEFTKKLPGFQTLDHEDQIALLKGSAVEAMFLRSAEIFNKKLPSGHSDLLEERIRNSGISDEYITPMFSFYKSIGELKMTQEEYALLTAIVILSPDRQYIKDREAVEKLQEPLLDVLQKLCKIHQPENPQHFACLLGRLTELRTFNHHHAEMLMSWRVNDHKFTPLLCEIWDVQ

In the case of `CCCCCCCCCCCCCC`, the ratio activity, negative = inhibition [1] is reported as inconclusive: 2.03%, the activation [2] is reported as inconclusive: -3.76% and the Potency [3] is reported as “inactive”.
With `Nc1ccc(S(=O)(=O)NC(=O)c2ccccc2)cc1` the Potency [1] was “inactive”, the activation [2] was inconclusive: -7.7% and the Potency [4] was “inactive”.
With `CCCCCCCCCOC(=O)CCCCC(=O)OCCCCCCC` the ratio activity, negative = inhibition [1] was inconclusive: -8.28%, the Potency [2] was inconclusive: 30.6 µM [rising, partial curve] and the ratio activity, negative = inhibition [5] was inconclusive: 10%. The activity change, negative = inhibition [3] was inconclusive: 7.84%.
With `N[C@@H](Cc1ccc(O)cc1)C(=O)O` the ratio activity, negative = inhibition [1] was inconclusive: 6.72% [at 13.2 µM], the activation [2] was inactive: -7.61% [at 8.36 µM] and the activity change, negative = inhibition [3] was inactive: 1.57% [at 6.95 µM].
In the case of `COCCCOCCCOC`, the ratio activity, negative = inhibition [1] is reported as inconclusive: -9.08%, the Potency [2] is reported as inconclusive: 77 µM [rising, partial curve, poor fit] and the Potency [6] is reported as “inactive”. The Potency [7] was “inactive” and the Potency [8] was “inactive”.
For `O=C1[C@@H]2[C@H]3CC[C@H](C3)[C@@H]2C(=O)N1CCCCN1CCN(c2ncccn2)CC1`, the Potency [1] was “inactive”, the Potency [2] was inconclusive: 33.5 µM [rising, partial curve, poor fit] and the Potency [4] was “inactive”. The activity change, negative = inhibition [3] was inconclusive: -22.4%.
For `c1ccc(CSCc2ccccc2)cc1`, the Potency [1] was “inactive”, the activation [2] was inconclusive: 33% and the Potency [5] was “inactive”. For the same compound, the Potency [7] was “inactive”.
In the case of `CO[C@@]1(NC(=O)C(C(=O)O)c2ccc(O)cc2)C(=O)N2C(C(=O)O)=C(CSc3nnnn3C)CO[C@@H]21` (stereo partly drawn), the ratio activity, negative = inhibition [1] is reported as inconclusive: 2.54%, the Potency [2] is reported as “inactive” and the Potency [7] is reported as inconclusive: 13.3 µM [cytotoxic, single point].
In the case of `O=C1CCCN1C1CCCCC1`, the Potency [1] is reported as “inactive”, the activation [2] is reported as inconclusive: 3.5% and the Potency [7] is reported as “inactive”.
For `CC(=O)[C@@]1(O)CC[C@H]2[C@@H]3C[C@H](C)C4=CC(=O)CC[C@]4(C)[C@H]3CC[C@@]21C`, the Potency [1] was inconclusive: 13.3 µM [activator, full curve, poor fit], the Potency [2] was inconclusive: 29.8 µM [rising, single point] and the ratio activity, negative = inhibition [5] was inconclusive: 33.2%. The Potency [3] was inconclusive: 26.8 µM [activator].
In the case of `C(=C/c1ccccc1)/c1ccccc1`, the Potency [1] is reported as “inactive”, the activation [2] is reported as inconclusive: 41.8% [at 94.8 µM] and the Potency [8] is reported as “inactive”. For the same compound, the Potency [3] was “inactive”.
With `CCOC(=O)c1c(N)sc2c1CCN(Cc1ccccc1)C2` the Potency [1] was “inactive”, the Potency [2] was inconclusive: 18.8 µM [rising, partial curve] and the Potency [9] was inconclusive: 6.68 µM [cytotoxic, full curve, poor fit]. For the same compound, the Potency [8] was inconclusive: 33.5 µM [activator, single point].
In the case of `Cc1ccc(NC=O)c(C)c1`, the Potency [1] is reported as inconclusive: 54.9 µM [activator, partial curve, poor fit], the Potency [9] is reported as “inactive” and the Potency [4] is reported as “inactive”. The Potency [10] was “inactive”.
With `CC1(C)CCC[C@]2(C)[C@H]3CCO[C@]3(C)CC[C@@H]12` the Potency [1] was inconclusive: 61.7 µM [activator, single point] and the Potency [11] was “inactive”.
In the case of `Cc1ccc2c(c1)C(=O)c1ccccc1C2=O`, the ratio activity, negative = inhibition [1] is reported as inconclusive: -1.01%, the Potency [2] is reported as active: 54.3 µM and the Potency [3] is reported as “inactive”.
For `CCCC(C)c1ccccc1O` (stereo not drawn), the Potency [1] was “inactive”, the Potency [9] was “inactive” and the Potency [4] was “inactive”. The Potency [10] was “inactive” and the Potency [8] was “inactive”.
For `CCCCCCCOC(=O)CCC`, the ratio activity, negative = inhibition [1] was inconclusive: 0.155%, the Potency [12] was “inactive” and the Potency [4] was “inactive”. The Potency [6] was inconclusive: 0.549 µM [rising, partial curve, poor fit] and the Potency [13] was “inactive”.
For `CCCC1CCOC(C)S1` (stereo not drawn), the Potency [1] was “inactive”, the Potency [9] was “inactive” and the Potency [6] was active: 4.9 µM.
With `NC(=O)NC1NC(=O)NC1=O` (stereo not drawn) the Potency [1] was “inactive”, the Potency [11] was inconclusive: 0.106 µM [cytotoxic, single point] and the Potency [4] was “inactive”. The Potency [7] was inconclusive: 19.3 µM [rising, single point] and the activity change, negative = inhibition [3] was inconclusive: 15.9%.
With `C=CC(C)(CCC=C(C)C)OC(=O)C(C)C` (stereo not drawn) the Potency [1] was “inactive” and the Potency [4] was “inactive”.
With `CCCN(CCc1cccs1)[C@H]1CCc2c(O)cccc2C1` the ratio activity, negative = inhibition [1] was inconclusive: -7.21%, the activity change, negative = cytotoxicity [9] was inconclusive: -38.3% [cytotoxic] and the Potency [4] was “inactive”. For the same compound, the Potency [5] was “inactive” and the Potency [7] was inconclusive: 0.237 µM [rising, full curve].
For `CCOC(=O)C1=C[C@]2(CC)CCCN3CCc4c(n1c1ccccc41)[C@@H]32`, the Potency [1] was “inactive”, the Potency [9] was inconclusive: 21.1 µM [cytotoxic, partial curve] and the activation [4] was inconclusive: -0.877%. For the same compound, the Potency [6] was inconclusive: 33.5 µM [cytotoxic, single point], the Potency [5] was inconclusive: 0.422 µM [rising, full curve, poor fit] and the Potency [10] was inconclusive: 33.5 µM [single point]. The Potency [7] was inconclusive: 33.5 µM [cytotoxic, single point], the activation [14] was inconclusive: 4.63% and the Potency [13] was inconclusive: 33.5 µM [falling, single point]. The activity change, negative = inhibition [3] was inconclusive: -1.37%.
